Measured values published in PubChem BioAssay AID686970 (National Center for Advancing Translational Sciences (NCATS), 2013).
Screen size: about 360,000 compounds; about 6,000 (1.7%) were called active. Inconclusive means that the source gave no clear call. Such entries were picked first, then a sample of the others. The call rests on the fitted dose curve; in most records, active means well fitted cell-killing curve with a large enough effect; inconclusive means small, poorly fitted or top-dose-only effect, or effect the other way; inactive means flat fitted curve, though single readings scatter. No potency is given beside an inconclusive call; the fits are too rough.

Assay: qHTS for induction of synthetic lethality in tumor cells producing 2HG: qHTS for the HT-1080-NT fibrosarcoma cell line;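 further: NT is the 2HG producing partner of a matched IDH1 knockdown line; nearly all actives have a fitted effect of over 55% in size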;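 on activity, negative = less viability: 0% = DMSO-treated cells and -100% = media-only wells without cells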
Conditions: HT-1080-NT fibrosarcoma viability, CellTiter-Glo ATP luminescence, 48 h; activity, negative = less viability: at 46.1 µM (top of the series) unless noted
Summary of the method: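 Viability of the 2HG-overproducing fibrosarcoma line after 48 hours of compound exposure at 37 degrees C was determined by luminescence with CellTiter-Glo, and concentration-effect curves were then fitted and categorized.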
Potency means the concentration at half of the fitted maximal effect; tags describe the fitted curve by direction and shape.

| SMILES | Potency | activity, negative = less viability |
| --- | --- | --- |
| COc1ccc(CN(C)C(=O)c2ccc(OCC(=O)Nc3cccc(C(F)(F)F)c3)c(OC)c2)c(OC)c1 | inconclusive [cytotoxic, single point] |  |
| Cc1ccc(S(=O)(=O)n2[nH]c(=O)c(CCO)c2C)cc1 |  | inactive: 13.9% |
| FC(F)(F)c1ccccc1Cc1c(-c2ccc(Cl)cc2)nc2ccc(Cl)cn12 | inconclusive [cytotoxic, single point] |  |
| Cc1ccc(C(=O)/C=C/Nc2ccc3c(c2)OCO3)cc1 | inconclusive [cytotoxic, partial curve] |  |
| Cc1ccc(CN2CCC(c3nc4ccc(Cl)cc4[nH]3)CC2)cc1 | inconclusive [cytotoxic, single point] |  |
| N#Cc1cnn2c(N)c(-c3ccc(Cl)cc3)cnc12 | inconclusive [cytotoxic, single point] |  |
| COc1ccc(S(=O)(=O)N2CCCCC2c2cc(C(=O)Nc3ccc4c(c3)OCO4)no2)cc1 (stereo not given) |  | inactive: -27.4% |
| CC(C)c1nc(N2CCN(C(=O)c3ccco3)CC2)c2c3c(sc2n1)CCCC3 | inconclusive [cytotoxic, single point] |  |
| CCOC(=O)CSC1=C(C#N)C(c2ccc(Cl)cc2)C(C(=O)OC)C(=O)N1 (stereo not given) | inconclusive [cytotoxic, partial curve] |  |
| Cc1[nH]nc2c1C(c1ccc(-c3ccc(Cl)cc3)o1)C(C#N)=C(N)O2 (stereo not given) | inconclusive [cytotoxic, single point] |  |
| C=CCSc1nnc2c(n1)[nH]c1c(C)cccc12 | inconclusive [cytotoxic, single point] |  |
| O=C(COc1ccc(F)cc1)N(c1ccccn1)C1CCCCC1 |  | inactive: 1.22% |
| CC1(C(=O)NS(=O)(=O)C2CC2)CCCN(C(=O)c2ccc(F)c(Cl)c2)C1 (stereo not given) | inconclusive [rising, single point] |  |
| O=C(NCCN1C(=O)S/C(=C\c2cccnc2)C1=O)c1cc(S(=O)(=O)N2CCOCC2)ccc1F |  | inactive: -0.421% |
| COc1ccc(N2CCN(Cc3nc(N)nc(Nc4ccc(C)c(Cl)c4)n3)CC2)cc1 | inconclusive [cytotoxic, single point] |  |
| Cc1ccc(-c2nn3c(C)nnc3c3ccccc23)cc1S(=O)(=O)NCCN1CCOCC1 | inconclusive [cytotoxic, single point] |  |
| CC(C)(C)c1ccc(/C=C/C(=O)c2ccc(NC3=NCCCS3)cc2)cc1 | inconclusive [cytotoxic, single point] |  |
| CC(=O)c1ccc(-c2cnc3c(NC=O)cc(-c4ccccc4Oc4ccccc4)cn23)cc1 | inconclusive [cytotoxic, partial curve, poor fit] |  |
| CC(C)CCNC(=O)C1CCC(CNc2c(N3CCCC3)c(=O)c2=O)CC1 (stereo not given) | inconclusive [rising, partial curve] |  |
| COc1ccc(Cc2nnc(NC(=O)c3ccc(OC)c(OC)c3)s2)cc1OC | inconclusive [cytotoxic, single point] |  |
| CC(C)(C)n1ncc2c(=O)n(CC(=O)c3ccccc3)cnc21 |  | inactive: -1.57% |
| CCN(CC)S(=O)(=O)c1ccc(NC=C(C#N)C#N)cc1 |  | inactive: -1.45% |
| CCOc1ccccc1NC(=O)C(OC(=O)c1ccccc1O)c1ccccc1 (stereo not given) |  | inactive: 7.82% |
| COc1ccccc1-n1c(SCC(=O)c2ccc(O)cc2O)nc2cc([N+](=O)[O-])ccc21 | inconclusive [cytotoxic, single point] |  |

| SMILES | Potency | activity, negative = less viability |
| --- | --- | --- |
| O=C1N/C(=N\N=C\c2cccs2)SC1Cc1cccc(Cl)c1Cl (stereo not given) | active: 4.61 µM |  |
| Cc1c(C(=O)NCc2ccc(F)cc2)sc(=O)n1Cc1ccc(C(=O)c2ccccc2)cc1 |  | inactive: -7.95% |
| NC(=S)N1OC[C@@H]2COc3ccc4ccccc4c3[C@@H]21 | inconclusive [cytotoxic, partial curve] |  |
| CCOC(=O)Nc1ccc(OC)c([N+](=O)[O-])c1 |  | inactive: 5.05% |
| COc1cccc(Cn2cnc(-c3ccccc3OC)c2C2CC2)c1 | inconclusive [cytotoxic, single point] |  |
| Cc1ccc(NC(=O)CCSc2nnnn2-c2ccc3c(c2)OCO3)cc1C |  | inactive: -15.5% |
| CCc1nc2ccc(C(=O)NCc3ccccc3OC)cn2c1N(CC)Cc1cccc(Br)c1 | inconclusive [cytotoxic, single point] |  |
| COc1ccc(-c2cc3ccc(O)cc3oc2=O)cc1 |  | inactive: -7.81% |
| COc1ccc(/C=C/C(=O)c2ccccc2)cc1COc1ccc(F)cc1 | inconclusive [cytotoxic, single point] |  |
| CC[C@H](C)[C@H]1CNC(=S)N1CC1CCN(CC)CC1 | inconclusive [rising, single point] |  |
| COC(=O)N1c2ccccc2CCc2ccccc21 | inconclusive [cytotoxic, single point] |  |
| O=C(CCCN1C(=O)S/C(=C\C=C\c2ccccc2)C1=O)Nc1ccc(O)cc1 | inconclusive [cytotoxic, single point] |  |
| COc1cc(C)c2sc3ccccc3c(=O)c2c1NCCN(C)C | inconclusive [cytotoxic, single point] |  |
| O=c1cc(CNc2cc(C(F)(F)F)cc(C(F)(F)F)c2)nc2sccn12 | inconclusive [cytotoxic, partial curve] |  |
| O=C(CNC1CCN(Cc2ccccc2)CC1)Nc1ccc(S(=O)(=O)N2CCCCC2)cc1 | inconclusive [rising, single point] |  |
| Cc1cc(N2CCOCC2)ccc1/C=C\[N+](=O)[O-] | active: 4.11 µM |  |
| CCN(CC)CCOc1ccc2c(c1)C(=NO)c1cc(OCCN(CC)CC)ccc1-2 | active: 10 µM |  |
| Cc1cccc(C)c1NC(=O)c1cccc2c1C(=O)N(C1CCCCC1)C2 |  | inactive: -24.1% |
| CC(=O)c1c(C)[nH]c(C(=O)Nc2ccc(C)c(S(=O)(=O)Nc3ccc(C)cc3C)c2)c1C | inconclusive [cytotoxic, single point] |  |
| CCc1ccc(/C=C2/C(=O)N(c3ccccc3)C(=S)N2CC(=O)OC)s1 | inconclusive [cytotoxic, single point] |  |
| Cc1cccnc1C1=NOC(Cc2ccccc2)C(=O)N1C (stereo not given) |  | inactive: 16.3% |
| Cc1ccc(C)c(NC(=O)CN(C)C(=O)c2cccc(S(=O)(=O)N3CCN(Cc4ccccc4)CC3)c2)c1 | active: 20.6 µM |  |
| COc1cc(OC)c(/C=N/NC(=O)c2ccc(Cn3nc([N+](=O)[O-])cc3C)cc2)c(OC)c1 |  | inactive: -2.17% |
| COc1cc(/C=N/Nc2ccc(C(F)(F)F)cn2)cc(OC)c1O | inconclusive [cytotoxic, single point] |  |

| SMILES | Potency | activity, negative = less viability |
| --- | --- | --- |
| CCCCn1c(=N)n(CC(O)COc2cccc(C)c2)c2ccccc21 (stereo not given) | inconclusive [cytotoxic, single point] |  |
| CCCc1cc(-c2[nH]ncc2-c2ccc(C(=O)OCC)o2)c(O)cc1O | inconclusive [cytotoxic, single point] |  |
| CCc1ccc(NCc2cc3c(C)nn(-c4ccccc4)c3[nH]c2=O)cc1 | inconclusive [cytotoxic, single point] |  |
| COc1ccc(-c2n[nH]c3c2C(c2ccc(OC)c(OC)c2)N(c2ccccc2)C3=O)cc1 (stereo not given) | inconclusive [cytotoxic, single point] |  |
| Cc1ccc(Nc2nc(CSc3nnnn3C)cs2)cc1 |  | inactive: 10.7% |
| C#CC[N+](C)(C)CCCCCCCCCCCC | active: 10.3 µM |  |
| COC(=O)[C@]12CCCCC=C1N(Cc1ccc3c(c1)OCO3)C(=O)[C@H](CC(=O)NCc1cccc3ccccc13)C2 | inconclusive [cytotoxic, single point] |  |
| Cc1ccc(NS(=O)(=O)c2cc(OCC(N)=O)c(C)cc2Cl)cc1 |  | inactive: -2.57% |
| CCOc1ccccc1-c1cc(C(=O)N/N=C/c2ccc(O)c(OC)c2)c2ccccc2n1 | inconclusive [cytotoxic, partial curve, poor fit] |  |
| COCc1nc(-c2ccc(-c3ccc(OC)cc3)nc2OC)no1 |  | inactive: -3.06% |
| CC(C)CNC(=O)c1coc(=O)c(Br)c1 | inconclusive [cytotoxic, single point] |  |
| CCCCc1nnc(NC(=O)c2ccc(S(=O)(=O)N3CCOCC3)cc2)s1 |  | inconclusive: 33% |
| O=C(O)COc1ccc(F)cc1Br | inconclusive [rising, single point] |  |
| CCOc1ccccc1N(C)C(=O)c1sc2ncn(CC(=O)N3CCCCC3C)c(=O)c2c1C (stereo not given) |  | inactive: 0.586% |
| COc1cc(NC(=O)CSCc2ccccc2)c(C(=O)O)cc1OC |  | inactive: 7.22% |
| N#Cc1nc(-c2ccc(OCc3ccccc3)cc2)oc1NCCCN1CCOCC1 | inconclusive [cytotoxic, single point] |  |
| Cc1cc(Nc2nc3ccccc3[nH]c2=O)n(-c2ccccc2)n1 | inconclusive [cytotoxic, single point] |  |
| CN(c1ccccc1)S(=O)(=O)c1ccc(C(=O)NCc2ccccc2CN2CCCC2)cc1 | inconclusive [cytotoxic, single point] |  |
| COC(=O)c1[nH]nc2c1C(=O)N(C1CCCCC1)C2=O | inconclusive [cytotoxic, single point] |  |
| COc1cccc(OCCNS(=O)(=O)c2ccccc2[N+](=O)[O-])c1 |  | inactive: 1.62% |
| O=C(c1ccc(Cn2c(=O)[nH]c3ccccc3c2=O)cc1)N1CCN(c2ccc(Cl)cc2)CC1 | inconclusive [cytotoxic, partial curve] |  |
| Cc1ccc(-c2c[n+](CC(=O)N3c4ccccc4Sc4ccccc43)c3n2CCC3)cc1 | inconclusive [cytotoxic, single point] |  |
